Drawing on article PMC12136788, this text covers binding signal for 22 molecules.

To fix the notation:
T1: UNK ZnF1-3 (human, UniProt Q9C0B0 31-174)
T1 sequence: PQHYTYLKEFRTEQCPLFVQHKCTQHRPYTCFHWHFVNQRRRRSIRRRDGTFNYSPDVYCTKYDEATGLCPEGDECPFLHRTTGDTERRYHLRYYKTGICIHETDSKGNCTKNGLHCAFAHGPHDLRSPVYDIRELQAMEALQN

B1: chr6:89808334:89808335:-_ENSG00000154548_ENST00000452027|hu_mus|FALSE|FALSE (ssRNA)
RNA: GGGAGUUCUACAGUCCGACGAUCUCUGCUGGGAGGAGCUCCUCACCAACUGUUUUUAUGGUGGUAACUCCGAGAUCUGGAGUGGGACCGGAGAUGGGAGUGUUUUGUUGUCUGUGUCUUCGAUCCAGAACUGGUGUACGCUCUCAACAGAGGAUUGAGCAUCA
B2: chr7:54825262:54825263:-_ENSG00000132432_ENST00000352861|hu_hu|hu_hu_hu_mus_False|8_38 (ssRNA)
RNA: GGGAGUUCUACAGUCCGACGAUCCUGCCGGCUGGGCUCCACAAACUGCAUUACCUGAUCCAUGUUUGUUGGAUGGCGGAUUGAGAGCGUAGAGACAACGUAGCACUGAGAGAACCGAGCCCAACGGCACCGGAACCUGGCAACCAACAGAGGAUUGAGCAUCA
B3: 100648241_100648361_5692_3pUTR_ENSMUSG00000023032_ENSMUST00000023776|mouse|control|control (ssRNA)
RNA: GGGAGUUCUACAGUCCGACGAUCAGAGCCAAGGCUUCAAUUAACGUGUUCUUGAGUCCCAGCCCCCCAACUCCACUCACACCACCAGCUGACAUUACCAGCAAGUCAUGACAUUAGCUGGCCACAUUCAAGACGUGUCUGAGACAACAGAGGAUUGAGCAUCA
B4: 182499086_182499206_61_5pUTR_ENSMUSG00000026496_ENSMUST00000027777|mouse|control|control (ssRNA)
RNA: GGGAGUUCUACAGUCCGACGAUCCGCGUACUCCACUCGAUAAAGCCUCUCCGAGGCCUCCGCCAUCCUCCUUCUCGUGCUGCAGCGGCAGCCCGACGCCGCCGCUGGUGCGCUCCGCUAACGUGUCGGUUUCCCCCGCAAGCGCAACAGAGGAUUGAGCAUCA
B5: 118649187_118649598_1739_CDS_ENSMUSG00000020114_ENSMUST00000020315|mouse|control|control (ssRNA)
RNA: GGGAGUUCUACAGUCCGACGAUCCAGUGAGAAAAUGAUUCCUGGUACCAGUACAGGAAUGUGCUGGGUUAGUGCUCCCGGCAGCACAUUUACCAGCUCAGUUAACAUGUUAAAGCAACACUGUCGGGUCUUCACACUCUUCUCCAACAGAGGAUUGAGCAUCA
B6: chr12:493273:493274:-_ENSG00000073614_ENST00000399788|hu_mus|hu_hu_hu_mus_False|28_58 (ssRNA)
RNA: GGGAGUUCUACAGUCCGACGAUCUUUUCUCUCCACCACAGGGAUCUUCAAUGUAGAUCCUUGAAGUUCCCAAAAUUUUGCUAGUUGAUCCAAGAAGUCCAAUCUUACUCUGGUCAUUGCCUCAAGUUCAUUCAGGCGCUGGACCAACAGAGGAUUGAGCAUCA
B7: chr1:187196858:187196859:+_ENSMUSG00000026615_ENSMUST00000046514|mus_hu|FALSE|FALSE (ssRNA)
RNA: GGGAGUUCUACAGUCCGACGAUCAACAUCCCACUUGGUACCUACUGACUGGAAGGCCUGCUGGGCUUCAAGAAAGCCAAACCAACGUUUUACAUGAACUGGAGCUUUCUUCUGUUUCAACUGUUCUUGCCAGGCAGCAUUUCCCAACAGAGGAUUGAGCAUCA
B8: 43184458_43184578_3020_3pUTR_ENSG00000136448_ENST00000258960|human|control|control (ssRNA)
RNA: GGGAGUUCUACAGUCCGACGAUCCCAAAACCCACAGCCUGCAACAAGCCCCUGCUGGCCUGUAGAAAGUGGCUUCGGUGAGUGGCACAGGGCUGAGCCUGGCCUCCUGGCUAAGGCUUCAUUCCUGUAUGAGCGGAGAGGUGACAACAGAGGAUUGAGCAUCA
B9: chr1:163112212:163112213:-_ENSG00000143248_ENST00000313961|hu_hu|hu_hu_hu_mus_False|8_38 (ssRNA)
RNA: GGGAGUUCUACAGUCCGACGAUCUUUUAUUAUCAGUAAGAGUGAGUUACAUACUAGGCAAAGUAUUGGAUACAAUAAUCAGGAAACAAACACUAUUUUUCUUGAAUUUAAAACUUUAUGAGCGAAGGCUUACAAAUGGACUUACAACAGAGGAUUGAGCAUCA
B10: chr10:57939204:57939205:+_ENSMUSG00000003226_ENSMUST00000003310|mus_mus|motif|central (ssRNA)
RNA: GGGAGUUCUACAGUCCGACGAUCGGGUGGCCUUAUUACUUCACCCUGCAUGGGCUGAACGAAAUUGGAUUUUCCAAAUUCGGUAACCUUUGAUUCUGCUGACCUUGAAGCGUGAGCUACAAGUGGAGGCUUUGUGAAAUACCCCAACAGAGGAUUGAGCAUCA
B11: chrX:98862621:98862622:+_ENSMUSG00000034160_ENSMUST00000044475|mus_hu|mus_mus_mus_hu_False|28_78 (ssRNA)
RNA: GGGAGUUCUACAGUCCGACGAUCCUGCAUCUCCUUUAGAGUGUUUCCCAUAUUAGAAUAAGCAUCAGCAAAGGUAGGACUGAUUCGAAUAGCCUCCUUAUAAUGCAUCAGUGCUUCCUGCAGUUUUCCCUGCUGCUGCAGUACCAACAGAGGAUUGAGCAUCA
B12: chr2:155843326:155843327:+_ENSMUSG00000005881_ENSMUST00000006035|mus_hu|FALSE|FALSE (ssRNA)
RNA: GGGAGUUCUACAGUCCGACGAUCUUGGUCGCCCAACAGCCCAUUGGCAACCUUCUCAUGUCUGGUCACAGAGAACUGAUUUGUCCUCAGUACCUCUCCGUCCACCUUCAUGUACACAGUGGGCACCACCUUCACAAAGUACUGCAACAGAGGAUUGAGCAUCA
B13: chr12:39756943:39756944:-_ENSG00000139116_ENST00000544797|hu_mus|hu_hu_hu_mus_False|1_78 (ssRNA)
RNA: GGGAGUUCUACAGUCCGACGAUCGGUUUGGCUGUUACCCCCAAGGGAAUCCUGCAAUAGUCUUGUUAGCUUAGAGUCUCUGUAAGGGACAUGGGUGGCUCUCUUGCUCUUGUCCCCCAAGGCGCUGAUUACAUUCCCAAGUGCCAACAGAGGAUUGAGCAUCA
B14: chr2:198367945:198367946:+_ENSG00000115541_ENST00000409468|hu_hu|motif|central (ssRNA)
RNA: GGGAGUUCUACAGUCCGACGAUCGCCAUUUCAAUAGUGACUUAUUUCAGUCUACGUACUUUCCAAGAAUGUCACCAUCUCGGAAUAGGAAAUAAUCCUGCAAGUGAAAAAAACCAUUAGUUAAGACAACUAAUUGCAAAUAUCCAACAGAGGAUUGAGCAUCA
B15: chr5:132409753:132409754:+_ENSG00000170606_ENST00000304858|hu_mus|motif|central (ssRNA)
RNA: GGGAGUUCUACAGUCCGACGAUCUUUAUUAAAUGCACAUACAGAAACUUGAUAGGCAGAAUGUCCCAUAUCUACAAAAACGGCAUUUCUUGGUUUUUCUUCUAAGGCAGGAAGGUCUUGUUUAUAGAUUCCAUAAGCAAGAGCCAACAGAGGAUUGAGCAUCA
B16: chr3:122261000:122261001:-_ENSMUSG00000039735_ENSMUST00000162409|mus_mus|FALSE|FALSE (ssRNA)
RNA: GGGAGUUCUACAGUCCGACGAUCGUAAUCUUCAAAUGGAAAGUCUCCUGGAGGUUCAAAGCCAGACUUGAAGGAGUCUACUACCAUUUGAGAAUCUCUUCUUUCAUCAACUGAUUUUGCUGCAAGAAUCAUUCCUUCUAAACACAACAGAGGAUUGAGCAUCA
B17: 37285371_37286376_123_CDS_ENSMUSG00000066798_ENSMUST00000053098|mouse|control|control (ssRNA)
RNA: GGGAGUUCUACAGUCCGACGAUCCUGUAGGACCACAUCUCCUUGCUGUUCAAACUGGAAGUGUAGAACAUCAGACUCAGCAGCCAUGGUCACGAUCGACUAGCAAAACUGGCUUUGAGGCUUCCGCGGCAAUGGCAGCCCAGGCAACAGAGGAUUGAGCAUCA
B18: chr11:4127340:4127341:+_ENSG00000167325_ENST00000300738|hu_mus|hu_hu_hu_mus_False|38_88 (ssRNA)
RNA: GGGAGUUCUACAGUCCGACGAUCGGCAUAGUCAGGGUGCUUCGUGGUCAAGGUUGCGGCUGUCUCAGCAGCCAGGGUGUCCAGUUCCACUGUGGUGACCCCACUGUAUAGGCCUUGGAUUACUUUCAUGGUGAUCUGAGCAGGCAACAGAGGAUUGAGCAUCA
B19: chr6:150114741:150114742:+_ENSG00000120265_ENST00000367380|hu_mus|FALSE|FALSE (ssRNA)
RNA: GGGAGUUCUACAGUCCGACGAUCCCCCGAGGACAGGAGCAUUGGGUCAUCCUUUUUGACAUUAGUUAUUGAGUCAUCUACUAGUUCUUUAAUGUGAUCAAUUCCAAUGACUUUUCCACUAUUUCCAACCAUCCGUGCAAAACACAACAGAGGAUUGAGCAUCA
B20: chr4:138441076:138441077:-_ENSG00000189184_ENST00000507846|hu_mus|motif|central (ssRNA)
RNA: GGGAGUUCUACAGUCCGACGAUCGGAUAAAUCAGACAAAAUUGCAGUAACAAAAAAAGUGACUUUAUAAAUGUUCAUAUGCGGAAAAUACAAGCAAAACUGUGAUAGCAUGCACAAGAGACAAAAGCUAAAGGUGAAUAAUUACAACAGAGGAUUGAGCAUCA
B21: chr2:178096590:178096591:-_ENSG00000116044_ENST00000397062|hu_mus|FALSE|FALSE (ssRNA)
RNA: GGGAGUUCUACAGUCCGACGAUCGAGGAUGCUGCUGAAAGAAUCCUCAAAACCAUGAAGGAAAUGUGGACCACAGUUGCCCACUUCUUUUUCCAGCGAGGAGAUCGAUGAGUAAAAAUGGUAAUUGCUGUCCAUUUCUGUCAGCAACAGAGGAUUGAGCAUCA
B22: chr15:59961163:59961164:-_ENSG00000140299_ENST00000607373|hu_hu|motif|central (ssRNA)
RNA: GGGAGUUCUACAGUCCGACGAUCGCCAACGUAUUCCAUGGGGACAAGUUCUGCUAGUUCUGCCAAAUUAAACACGUAUCGGAUUUUUUGGCUGAAUUUCGAGCUAAUAAAUGGUCUUGUAACAGCCAGAAGUGUUCUGAUAAACAACAGAGGAUUGAGCAUCA

The list shows a part of the results.

This test deals with T1, UNK ZnF1-3. Briefly: nsRBNS (natural sequence RNA bind-n-seq); RBNS binding buffer (assumed for nsRBNS): 25 mM Tris pH 7.5, 150 mM KCl, 3 mM MgCl2, 0.01% Triton X-100, 500 ug/ml BSA, 20 U/ml SUPERase-In, 4 C; UNK is unkempt and MSI1 is Musashi-1; names of the RNAs are library labels; protein concentration not given here; high values mean tight binding.
B1 had a binding signal of 0.536 enrichment R.

In the case of B2, the binding signal came out at 1.65 enrichment R. The same measure for B3: 0.948 enrichment R; for B4: 0.87 enrichment R; for B5: 0.736 enrichment R. As for B6, the figure is 0.939 enrichment R; as for B7, 1.31 enrichment R. The same measure for B8: 1.16 enrichment R; for B9: 0.948 enrichment R.

Take B10: the binding signal was determined as 0.757 enrichment R.

For B11, the binding signal came out at 0.995 enrichment R. Regarding B12, the binding signal came to 1.03 enrichment R. The same measure for B13: 0.601 enrichment R. As for B14, the figure is 0.501 enrichment R; as for B15, 0.764 enrichment R.

Molecule B16 yielded a binding signal of 0.872 enrichment R. As to B17, the binding signal was 1.21 enrichment R.

As for B18, the binding signal came out at 0.912 enrichment R. The same measure for B19: 1.05 enrichment R; for B20: 2.52 enrichment R. As for B21, the figure is 0.808 enrichment R. As for B22, the figure is 0.915 enrichment R.
